Out of some 52,000 compounds screened, about 1,700 (3.3%) were called active. No stated cut-off is given here; in the data, active means survival mostly below about 52% (no sharp cut-off); inactive means mostly above about 56%. This is one part of the list.

The subject of the test is Wild type. Nature of the test: growth inhibition of S. aureus wild type versus tarO mutant, primary screen, teichoic acid synthesis inhibitors, RN4220, OD600 (AID 463173). The following applies: S. aureus RN4220 wild type/DeltatarO growth, OD600, 18 h, active compounds read low, screened at 18.75 µg/mL (by protocol).
As to `CN1C(C(=O)c2ccccc2)=C(OC(=O)c2ccc(Br)cc2)c2ccccc2S1(=O)=O`, the survival is inactive: 96%.
Under `O=C(NC(=O)c1ccc(F)cc1)Nc1ccc(-c2cc(C(F)(F)F)nn2-c2ccccc2)cc1` stands inactive: 85%; under `O=C(NCCc1csc2nc(-c3ccccc3F)nn12)c1ccco1`, inactive: 71%; under `CCOC(=O)c1c(C)[nH]c(C)c1S(=O)(=O)NCC(=O)Nc1cc(C)ccc1OC`, inactive: 75%.
The value for `COc1ccccc1NC(=O)c1c(NCc2ccc(OC)c(OC)c2OC)sc2c1CCCC2` was inactive: 92%; that for `COc1ccc(NC(=O)c2cc3c(=O)n(Cc4ccco4)ccc3nc2C)cc1` was inactive: 49%; that for `Cc1ccc(NC(=O)Nc2ccc3c(c2)N(C)C(=O)c2ccccc2S3)c(C)c1` was inactive: 103%.
Under `Sc1ccc2oc3ccc(S)cc3c2c1` stands inactive: 104%; under `O=C(CSc1nnc(CNc2cccc(Cl)c2)o1)Nc1cccc(Cl)c1`, inactive: 101%; under `COc1ccc(N2CCN(S(=O)(=O)CCNC(=O)C(c3ccccc3)c3ccccc3)CC2)cc1`, inactive: 85%.
Take `CCN1CCN(CCCNC(=O)c2cnn(-c3ccccc3)c2C2CCN(C(=O)OC(C)(C)C)CC2)CC1`: the survival was inactive: 64%.
The value for `CCOC(=O)c1ccc(Nc2nc3ccccc3nc2NS(=O)(=O)c2ccc(Cl)cc2)cc1` was inactive: 59%; that for `Cc1ccc(-c2c(CN3CCN(c4cccc(C(F)(F)F)c4)CC3)csc2C)cc1` was inactive: 86%.
Under `COc1cccc(C2C=C(c3ccc(C)c(C)c3)Nc3nnnn32)c1OC` (stereo not given) stands inactive: 71%.
Under `COc1cc(NC(=O)c2ccc(C)cc2)ccc1NC(=O)c1cc2ccccc2o1` stands inactive: 75%; under `Cc1ccc(C)c(CN2C(=O)C(=O)c3ccccc32)c1`, inactive: 81%; under `CCCC(=O)c1cc(F)c(N2CCOCC2)cc1C`, inactive: 121%.
On to `O=C1CSC2(C(=O)N(Cc3ccccc3F)c3ccccc32)N1c1ccc(F)cc1` (stereo not given), for which the survival is inactive: 71%.
The value for `CCOC(=O)C1=C(C)C(c2ccc(OC)cc2)NC(=O)N1` (stereo not given) was inactive: 103%; that for `CCSc1nnc2n(-c3cccc(C)c3)c(=O)c3c4c(sc3n12)CCCC4` was inactive: 81%; that for `COc1ccc(CCC(=O)N2CCc3c([nH]c4ccccc34)C2c2ccc(F)cc2)cc1` (stereo not given) was inactive: 92%.
The value for `Cc1ccc2onc(CNC(=O)N3CCN(c4cccc(C)c4C)CC3)c2c1` was inactive: 57%; that for `COc1ccc(-c2cc(C(=O)Nc3cccnc3Cl)no2)cc1OC` was inactive: 140%; that for `O=C(NCCc1ccccc1)c1ccc(CS(=O)(=O)c2ccc(Br)cc2)o1` was inactive: 129%.
The value for `COc1ccc(-n2ccnc2SCC(=O)Nc2ccc(F)cc2F)cc1` was inactive: 143%; that for `Cc1cc2nn(-c3ccccc3)nc2cc1NC(=O)c1cccc2c(Cl)cccc12` was inactive: 70%.
Regarding `O=C(CN1CCC(N2CCCCC2)CC1)NC(c1ccccc1)c1ccccc1`, the survival was inactive: 97%.
The value for `Cc1nc2cccnc2n1-c1cccc(C(=O)N2CCN(c3ccc(Cl)cc3)CC2)c1` was inactive: 58%; that for `CCN(CCCNC(=O)Cn1ncc2c([nH]c3ccc(C)cc32)c1=O)c1cccc(C)c1` was inactive: 59%; that for `CCC(=O)N1c2ccccc2CC1C(=O)NCc1ccc(OC(C)C)cc1` (stereo not given) was inactive: 113%.
The value for `Cc1cccc(CCNC(=O)c2sc3nc4n(c(=O)c3c2C)CCCC4)c1` was inactive: 85%; that for `O=S(=O)(/C=C/c1ccccc1)N1CCOCC1` was inactive: 110%; that for `COc1ccc(C2CC(=O)Nc3c2c(C)nn3-c2nncc(-c3ccc(C)cc3)n2)c(OC)c1OC` (stereo not given) was inactive: 99%.
The value for `CCOc1ccc(-c2nc(SCC(=O)Nc3ccc4c(c3)OCO4)c(-c3ccc(F)cc3)[nH]2)cc1` was inactive: 98%; that for `Cc1csc2nc(-c3cccc(NC(=O)C(C)C)c3)cn12` was inactive: 80%.
Consider `CCc1ccccc1NC(=O)c1ccc2c(c1)N(Cc1cccc(Cl)c1)C(=O)c1ccccc1S2(=O)=O`, for which the survival was inactive: 93%.
Take `CN1C(=O)c2ccccc2Sc2ccc(NC(=O)c3ccccc3F)cc21`: the survival is inactive: 73%.
Under `O=C(Cn1c(C(=O)NCc2ccco2)cc2sccc21)c1ccccc1` stands inactive: 115%; under `CCOC(=O)c1cccc(NC(=O)[C@@H](c2ccccc2)N2Cc3ccccc3C2=O)c1`, inactive: 71%.
The value for `Cc1c(-c2nsc(NC(=O)c3ccccc3)n2)nnn1-c1ccc(C(F)(F)F)c(Cl)c1` was inactive: 80%; that for `CCCNC(=O)N1CCC(C(=O)c2cccc(F)c2)CC1` was inactive: 96%; that for `Cc1cc(C)c(NC(=O)Cc2csc(C)n2)c(Cl)c1` was inactive: 81%.
Under `COc1cccc2c(=O)c(C(=O)NCc3cccs3)c[nH]c12` stands inactive: 108%; under `CCN1C(=O)c2ccccc2Sc2ccc(C(=O)NCCCN(CC(C)C)CC(C)C)cc21`, inactive: 93%; under `CCCC(=O)Nc1nnc(CCC)s1`, inactive: 107%.
Take `CCOc1ccccc1C1C(C(=O)N2CCCCC2)=C(C)Nc2nc3ccccc3n21` (stereo not given): the survival was inactive: 73%.
As to `CCOc1ccccc1NC(=O)c1nn(-c2ccc(C)cc2)c(=O)n(C)c1=O`, the survival was inactive: 91%.
Consider `Cc1ccc(C(=O)Nc2ccc(-c3cn4cccnc4n3)cc2)cc1C`, for which the survival is inactive: 80%.
In the case of `COc1ccccc1CNc1ccc(-c2nc(-c3cccnc3)no2)cc1[N+](=O)[O-]`, the survival is inactive: 78%.
The value for `COC(=O)c1c(-c2cccs2)csc1NC(=O)COc1ccc(C(C)(C)C)cc1` was inactive: 78%; that for `CCc1ccc(NC(=O)c2sc(-n3nc(C)c(Cc4ccc(OC)cc4)c3C)nc2C)cc1` was inactive: 121%.
Under `O=C(CCC1CCCCC1)Nc1c[nH]c(=O)[nH]c1=O` stands inactive: 104%; under `O=C(NCC1CCN(Cc2cccc(Cl)c2)CC1)Nc1cc(Cl)ccc1Cl`, active: -1%.
Under `COc1cccc(NC(=O)CN2C(=O)c3cccnc3Oc3ccc(Cl)cc32)c1` stands inactive: 74%; under `COc1ccc(N(C)C(=O)CCn2cnc3onc(-c4ccc(F)cc4)c3c2=O)c(OC)c1`, inactive: 76%.
Consider `Cc1ccccc1NC(=O)NC1(C(=O)N2CCC(C(N)=O)CC2)CCCCC1`, for which the survival was inactive: 103%.
Under `CCCCN(CCCC)C(=O)c1cc2c(=O)n3cccc(C)c3nc2s1` stands active: -2%; under `COc1ccc(C2CC(=O)N(CC(=O)Nc3cc(C)ccc3C)c3ccccc3S2)cc1` (stereo not given), inactive: 86%.
Under `CC(C)(C)OC(=O)N1CCC(c2c(C(=O)N3CCC(c4ccccc4)C3)cnn2-c2cccc(Cl)c2)CC1` (stereo not given) stands inactive: 135%.
Under `CCCCCS(=O)(=O)c1oc(-c2cccs2)nc1S(=O)(=O)c1ccc(C)cc1` stands active: 11%.
Take `NC(=O)c1ccc(S(N)(=O)=O)o1`: the survival is inactive: 102%.
Under `Cc1cccc(OCC(=O)N(Cc2cccs2)c2ccc(Cl)cc2)c1C` stands inactive: 79%; under `COc1ccc(NC(=O)COc2ccc(-c3nn(C)c(=O)c4ccccc34)cc2)cc1`, inactive: 83%.
Under `COc1ccccc1CNC(=O)C(NS(=O)(=O)c1cccs1)C(C)C` (stereo not given) stands inactive: 83%.
The value for `Cc1ccc(-c2nc3sc(CCNC(=O)c4ccc(Br)o4)c(C)n3n2)cc1` was inactive: 82%.
For `COc1ccc(-c2cc3ccc(O)c(CN4CCOCC4)c3oc2=O)cc1OC`, the survival is inactive: 136%.
Under `CCCCOc1ccc(C(=O)Nc2cccc(-c3nc4cccnc4s3)c2)cc1` stands inactive: 87%.
For the compound `Cc1cc2n(n1)C(c1cc(C(C)(C)C)c(O)cc1O)Nc1ccccc1-2` (stereo not given), the survival was inactive: 115%.
Under `CSc1cccc(NC(=O)CN2C(=O)COc3ccc(Cl)cc32)c1` stands inactive: 64%.
The value for `CCOc1ccc(C(=O)N2CCC(c3nc4ccccc4o3)CC2)cc1` was inactive: 80%; that for `CCOc1ccc(OCC)c(NC(=O)c2nnn(CC(=O)Nc3ccc(C)cc3C)c2N)c1` was inactive: 89%; that for `CCOC(=O)C1CCN(c2ncnc3c2oc2ccccc23)CC1` was inactive: 115%.
Under `CCOc1ccc(NC(=O)CSc2nc3c(oc4ccccc43)c(=O)n2-c2ccccc2C)cc1` stands inactive: 99%; under `CC(C)N=C1SC(CC(=O)Nc2ccccc2)C(=O)N1C(C)C` (stereo not given), inactive: 106%.
As to `CC(NC(=O)c1ccc2c(c1)CCN2S(=O)(=O)c1ccc(Cl)cc1)c1ccccc1` (stereo not given), the survival was inactive: 102%.
The value for `COc1ccccc1-c1nnc(SCC(=O)c2ccc(Cl)cc2)n1-c1ccccc1` was active: 0%; that for `CCCCc1ccc(NC(=O)c2cc3c(=O)n4ccccc4nc3s2)cc1` was inactive: 83%.
The value for `Cc1ccc(NC(=O)NCCc2c(C)nn(C)c2C)cc1Cl` was inactive: 129%; that for `CCn1ccc2cc(S(=O)(=O)N3CCCN(C(=O)Nc4cccc(Cl)c4)CC3)ccc21` was inactive: 84%.
Under `COc1ccc(N(C)C(=O)c2cn(C3CCCCC3)c(=O)c3c2c2ccccc2n3C)cc1` stands inactive: 51%; under `COc1ccc(C2=NN(CC(=O)NCCc3ccc(OC)c(OC)c3)C(=O)CC2)cc1`, inactive: 143%; under `Cc1cc(NC(=O)c2cccnc2)ccc1NC(=O)c1ccco1`, inactive: 92%.
Take `CCOC(=O)c1c(S(=O)(=O)N2CCCC(C(=O)Nc3cccc(Cl)c3)C2)c(C)n(C)c1C` (stereo not given): the survival was inactive: 90%.
The value for `CC1(C)CC(NS(=O)(=O)c2ccc(S(=O)(=O)N3CCOCC3)cc2)CCO1` (stereo not given) was inactive: 101%; that for `CCCCN(CC)CCCNC(=O)CCN1N=C(c2ccc(OC)cc2)CCC1=O` was inactive: 70%.
Under `COc1ccccc1NC(=O)C(=O)NCCc1csc(-c2cccc(F)c2)n1` stands inactive: 124%.
The value for `COc1ccc(NC(=O)c2cc(C3CC3)nc3c2c(C)nn3-c2ccccc2)cc1` was inactive: 79%.
Consider `COc1cccc(CNC(=O)c2cc3c(s2)-c2ccccc2OC3)c1`, for which the survival is inactive: 65%.
The value for `COc1ccc(-n2c(=O)c3c4c(sc3n(Cc3ccc(F)cc3)c2=O)CCCC4)c(OC)c1` was inactive: 64%; that for `COc1ccccc1NC(=O)C1=C(C)Nc2ncnn2C1c1ccccc1C(=O)O` (stereo not given) was inactive: 77%.

The record behind these values is PubChem BioAssay AID463173 (ICCB-Longwood Screening Facility, Harvard Medical School, 2010).
